Laboratory results: PubChem BioAssay AID1240 (Sanford-Burnham Center for Chemical Genomics, 2008)
In all, about 50,000 compounds went through this assay and about 800 (1.6%) showed an effect of 50% or more. The list shows a part of the results.

Target: Bcl-2-like protein 10 (Homo sapiens) (UniProt Q9HD36)
Assay: Phenotype converters, Bcl-B/TR3 peptide binding displacement, primary biochemical FP (AID 1240);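 note: 0% = Bcl-B with tracer peptide and DMSO and 100% = tracer peptide lacking Bcl-B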
Settings: GST-Bcl-B / FITC-TR3 peptide fluorescence polarization; stronger effect = higher value; compound at 3.75 mg/L

UniProt Q9HD36, sequence (Q9HD36 whole entry, looked up): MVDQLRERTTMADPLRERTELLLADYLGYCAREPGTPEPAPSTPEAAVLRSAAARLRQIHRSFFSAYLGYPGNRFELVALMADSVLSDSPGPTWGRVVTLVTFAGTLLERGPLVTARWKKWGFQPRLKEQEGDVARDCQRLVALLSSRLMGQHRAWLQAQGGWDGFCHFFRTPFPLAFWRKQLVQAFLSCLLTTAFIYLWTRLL

Structure (SMILES)	displacement
CC1=NN(C(=O)OC(C)(C)C)C(O)(c2ccc(Br)cc2)C1 (stereo not given)	-5.6%
Cc1cc(C)c(C(=O)/C(=C/c2ccco2)c2ccccc2)c(=O)[nH]1	8.9%
COc1ccc(C(=O)N2CCN(Cc3cccc(F)c3)CC2)cc1	-6%
CCOC(=O)c1c(C)nc2n(CCN3CCOCC3)c3ccccc3n12	-5.8%
CCOc1ccccc1N1C(=O)NC(=O)C(=Cc2ccc(OC)cc2)C1=O	13.2%
COc1cccc(C2/C(=C(\O)c3ccc(Cl)cc3)C(=O)C(=O)N2CCCCCC(=O)O)c1 (stereo not given)	-4.6%
O=C(O)c1c[nH]c2cc3c(cc2c1=O)OCCO3	-2.4%
COc1ccc(Cl)cc1N(CC(=O)NCC1CCCO1)S(=O)(=O)c1ccc(C)c([N+](=O)[O-])c1 (stereo not given)	-13.3%
COc1cc(/C=C2\N=C(c3ccccc3)OC2=O)cc(Br)c1OCc1c(C)no[n+]1[O-]	-1.1%
COc1ccc(CC(=O)Nc2ccc(S(=O)(=O)Nc3nc(C)cc(C)n3)cc2)cc1	-3.3%
COCCCNC(=O)CN(c1cccc([N+](=O)[O-])c1)S(=O)(=O)c1ccccc1	11.1%
CCOc1cccc(-c2cc(C(=O)Nc3ccc4c(c3)OCCO4)c3ccccc3n2)c1	-1.1%
CCOCCOC(=O)c1ccc(NC(=O)c2ccc(OC)c(OC)c2)cc1	-5.1%
COc1cc(NC(=O)c2ccc(Cl)cc2)c(Cl)cc1N	-1.7%
CS(=O)(=O)N(Cc1ccc(C(=O)NCCSc2ccccc2)cc1)c1ccccc1	-9.3%
CCOC(=O)C1CCN(C(=O)Nc2cccc(Cl)c2)CC1	13.5%
COc1ccc(NC(=O)c2cc(-c3ccc(OC)cc3OC)nc3ccccc23)c(OC)c1	-0.8%
COc1ccc(Cl)cc1NC(=O)/C=C/c1cccc([N+](=O)[O-])c1	15.4%
CCCC1CCc2c(sc(NC(=O)Cc3ccccc3)c2C(N)=O)C1 (stereo not given)	6.9%
COc1ccc(OC)c(S(=O)(=O)N2CCCCCC2)c1	-2.6%
CCCc1cc(=O)n2[nH]c(-c3ccc(F)cc3)cc2n1	8.1%
CC1=Nc2ccccc2/C1=C\c1c(O)n(-c2ccccc2)c(=O)[nH]c1=O	-3.1%
CCOC(=O)c1c(NC(=O)COc2ccccc2C)sc(C(=O)Nc2ccc(C)cc2C)c1C	10%
COc1cccc(CN2CCN(S(=O)(=O)c3ccc(C)cc3)CC2)c1	1.5%
COC(=O)c1cc(Cl)c(NC(=O)COc2cc(C)ccc2C(C)C)cc1OC	2.3%
COc1cc(/C=C2/SC(=S)N(CC(=O)O)C2=O)cc([N+](=O)[O-])c1O	-11.3%
CCOC(=O)c1cc(=O)c2c(F)c(F)c(F)c(F)c2o1	-4.1%

Structure (SMILES)	displacement
CN(CP(=O)(O)C(O)c1ccccc1)S(C)(=O)=O (stereo not given)	7.3%
CC(=O)C1(C)CC(C#N)(C#N)C(C#N)=C1N (stereo not given)	1.1%
Cc1ccc(NC(=O)c2sc(N)c(C(=O)OC(C)C)c2C)cc1	7.1%
CC1=NN(c2ccc(Cl)cc2)C(=O)C1	-11.1%
CCCOc1ccc2ccc(=O)oc2c1	13.4%
CCC(C)NC(=O)CN(c1ccc(C)c(Cl)c1)S(C)(=O)=O (stereo not given)	19.2%
CC1=NN(c2ccccc2)C(=O)/C1=C\c1ccccc1Cl	-14.1%
CCOc1cc(OCC)cc(C(=O)Nc2ccc(F)c([N+](=O)[O-])c2)c1	1.2%
CC(=O)OCc1ccc(-c2ccc([N+](=O)[O-])cc2)o1	13.1%
CCOc1ccc(C(=O)COC(=O)c2cccc(I)c2)cc1	9.4%
Cc1ccc(S(=O)(=O)NC(=O)C(C)O)cc1 (stereo not given)	11.3%
COc1ccc(C(=O)CCNc2ccccc2)cc1	5.6%
NC(=S)N/N=C/c1c[nH]c2ccccc12	14.4%
CCOC(=O)C1CCN(S(=O)(=O)c2ccc(F)cc2)CC1	-8%
O=C1NC2=Nc3ccccc3NC(c3ccccc3)=C2C(c2ccc(N3CCOCC3)cc2)N1 (stereo not given)	10.9%
CC1=NN(c2ccc(S(N)(=O)=O)cc2)C(=O)/C1=C\c1ccc(-c2ccc(Cl)c(C(=O)O)c2)o1	2.3%
CN(C)c1ccc(NC(=O)C2CC(=O)N(c3ccc(F)cc3)C2)cc1 (stereo not given)	3.3%
Cc1ccccc1C(=O)N=Nc1c(O)n(CN(C)C)c2ccc(Br)cc12	-7.2%
COc1cc(CN2CCN(C3CCCCCC3)CC2)cc(OC)c1O	-0.4%
COc1ccc(S(=O)(=O)Nc2ccc3ccccc3c2)cc1	9.7%
CC(=O)C1C(=O)c2c(cccc2[N+](=O)[O-])C1=Nc1ccc(N=Cc2cc(Br)ccc2O)cc1 (stereo not given)	5.3%
COC(=O)c1cc(C(=O)N2CCN(c3ccccc3)CC2)cc([N+](=O)[O-])c1	5.2%
Cc1ccccc1OCCSc1nc2ccc(Br)cc2[nH]1	12.3%
CC(O)c1c(OCc2ccccc2)ncnc1OCc1ccccc1 (stereo not given)	17.4%
O=C(NCc1ccc(Cl)cc1)c1ccc(I)cc1	9.9%
COc1ccccc1NC(=O)CC1CCCCC1	18.5%
CCc1ncc(C(O)c2ccccc2)n1C (stereo not given)	9.8%

Structure (SMILES)	displacement
COc1ccc(Cc2nnc(NC(=O)Nc3ccccc3)s2)cc1	11.9%
CC(=O)c1cccc(NC(=O)CC2S/C(=N\N=C\c3ccccc3)NC2=O)c1 (stereo not given)	20.7%
CC(C)CC(NC(=O)/C(=C\c1ccc(Cl)cc1)NC(=O)c1ccco1)C(=O)OCc1ccccc1 (stereo not given)	-8.5%
COc1ccc(C(=O)Nc2ccccc2C(=O)NC(C(=O)Nc2cccc(C)c2)C(C)C)cc1 (stereo not given)	8.7%
Cc1ccc(-n2nc3cc(C)c(NC(=O)c4ccc5c(c4)OCCO5)cc3n2)cc1	0.4%
Cc1ccc2c(c1)C(c1ccccc1Br)CC(=O)N2 (stereo not given)	8.6%
O=[N+]([O-])c1cc(-n2ncnc2-c2cccc(Br)c2)ccc1Cl	-5.8%
CCOC(=O)COc1ccc(/C=N\n2cnnc2)cc1OC	14.5%
CCOc1cc(/C=C2/C(=O)NC(=O)N(c3ccc(C)cc3)C2=O)ccc1OC	-0.2%
COC(=O)c1ccc(C(=O)OC)c(NC(=O)COc2cccc(Cl)c2)c1	1.2%
O=C(O)/C(=C\c1cccc([N+](=O)[O-])c1)NC(=O)c1ccccc1	12.4%
CCOC(=O)C1=C(C(=O)OCC)SC(=C2C(=S)C(C)(C)N(C(=O)CC)c3ccc(OCC)cc32)S1	-0.4%
O=C(COc1ccc2ccccc2c1)Nc1ccc(NC(=O)c2ccco2)c(Cl)c1	-1.7%
O=C1CC(N2CCC(O)CC2)C(=O)N1c1ccc(Cl)cc1 (stereo not given)	-4.9%
COc1ccc(CC(=O)Nc2ccccc2F)cc1OC	2.3%
O=c1[nH]c2ccccc2n1CCCN1CCN(C(c2ccccc2)c2ccccc2)CC1	13.1%
O=C(Nc1ccccc1-c1ccccc1)c1ccc(N2C(=O)c3ccc([N+](=O)[O-])cc3C2=O)cc1	5.3%
O=C1NN(c2cccc(Cl)c2)C(=O)/C1=C\c1ccc(O)cc1	12.1%
CC(C)(C)c1ccc2c(c1[N+](=O)[O-])C(=O)c1ccccc1C2=O	3.5%
O=C(Nc1ccc2c(c1)C(=O)N(c1ccccc1)C2=O)c1ccco1	-1.1%
CCOC(=O)c1c(C)n(CC(O)c2ccc([N+](=O)[O-])cc2)c2c1cc(O)c1ccccc12 (stereo not given)	6.8%
Cc1ccc(-c2cc(C(=O)N3CCC(Cc4ccccc4)CC3)c3ccccc3n2)o1	-8.3%
CCOc1ccc(C(=O)Nc2ccc(O)c(-c3nc4ccccc4o3)c2)cc1[N+](=O)[O-]	11%
O=C(CC1Sc2ccccc2NC1=O)Nc1ccc(N2CCOCC2)cc1 (stereo not given)	-6.6%
O=C(COc1ccccc1)Nc1ccc2nn(-c3ccc(Cl)cc3)nc2c1	6.3%
CCOC(=O)c1cc(CC)sc1NC(N)=O	9.5%
COc1cc(/C=C2/SC(=S)N(c3ccccc3)C2=O)ccc1Oc1nc(N2CCOCC2)nc(N2CCOCC2)n1	46.7%

Structure (SMILES)	displacement
COc1cc(/C=C2\C(=O)NC(=O)N(c3ccc(Cl)cc3)C2=O)ccc1OCc1ccc(C(=O)O)cc1	-51.8%
CC(=O)c1ccc(Oc2cc(-c3ccccc3)nc(-c3ccccc3)n2)cc1	-4.5%
COc1ccc(OC)c(N(CC(=O)N2CCCC2)S(C)(=O)=O)c1	1.7%
C=C(C)c1cccc(C(C)(C)NC(=O)N2CCN(C/C=C/c3ccccc3)CC2)c1	10%
O=C(NCc1ccncc1)c1ccc(Br)o1	9.8%
Cn1c(-c2ccc(C=O)s2)nc2c3ccccc3c3ccccc3c21	15.4%
Cc1ccccc1CNC(=O)CN(c1cccc([N+](=O)[O-])c1)S(=O)(=O)c1ccccc1	-2.2%
CC(=O)C(Sc1ccc([N+](=O)[O-])cc1)C(C)=O	0.5%
Clc1ccccc1-n1ncnc1-c1cccc(Br)c1	-1.3%
CCOC(=O)C1=C(C)N=c2s/c(=C/c3ccc(I)o3)c(=O)n2C1c1ccccc1OC (stereo not given)	14.5%
CC(=O)c1ccc(N2C(=O)c3c(Cl)c(Cl)c(Cl)c(Cl)c3C2=O)cc1	15.1%
CN(C)CCC(=O)c1ccc(O)cc1	3.9%
Cc1ccc(C(=O)Nc2c(Cl)cccc2Cl)cc1[N+](=O)[O-]	-1.9%
CC(C)(C)C1=C2OCC3COC2(O3)C(C(C)(C)C)=C(O)C1=O (stereo not given)	5.6%
COc1ccc(N(CC(=O)NCc2ccccc2)S(=O)(=O)c2ccccc2)cc1Cl	2.6%
COC(=O)C1=NNC2C(=O)N(c3cccc(Cl)c3C)C(=O)C12 (stereo not given)	11.5%
COc1ccc(C(CC(=O)C(C)C)C2C(=O)c3ccccc3C2=O)cc1 (stereo not given)	-7.3%
CCOc1ccc(C(O)c2cnc(C(C)C)n2C)cc1 (stereo not given)	-0.7%
CC(C)Oc1ccc(C(=O)Nc2cccc3c2C(=O)c2ccccc2C3=O)cc1	9.6%
CCOC(=O)C1=C(O)/C(=C/c2ccc(O)cc2)SC1=Nc1ccc([N+](=O)[O-])cc1	-9.8%
Cc1ccc(OCC(=O)NCCCN(C)C)c(Br)c1	-9.2%
CN(C1=NC(=O)/C(=C\C=C\c2ccccc2)S1)c1ccc(O)cc1	11%
Cc1nn(-c2ccccc2)c2c1C(c1ccc([N+](=O)[O-])cc1)C(C#N)=C(N)O2 (stereo not given)	1.4%
O=c1c2c(nc3cc(-c4cccc(Cl)c4)[nH]n13)CCC2	0.6%
